Results on one molecule are retold here after patent US20260209325A1, “SELECTIVE AND POTENT INHIBITORY ANTIBODIES OF MYOSTATIN ACTIVATION” (SCHOLAR ROCK, INC., priority 2022, published 2026).

Data set [1] in a line: AC-SINS self-interaction (aggregation behavior). The format is physicochemical. The following applies: cutoff: shift of >5 nm in plasmon wavelength. On the procedure: Developability profiles may be assessed by well-known parameters. […] In some embodiments, antibodies are tested for aggregation behavior by affinity capture self-interaction nanoparticle spectroscopy (AC-SINS). […] Typically, gold nanoparticles are coated with polyclonal antibodies that are specific for human monoclonal antibodies and the monoclonal antibodies are captured by the conjugates. The polyvalency of the monoclonal antibody conjugates amplifies the attractive self-interactions, i.e., aggregation between the adsorbed antibodies. This leads to reduced inter-particle separation distances and is detected by a change in color of the gold colloid solution, which may be quantified by a change in the wavelength of maximum absorbance (plasmon wavelength). Plasmon wavelength of 530 nm may be used as the reported value for unaggregated gold nanoparticles. Antibodies with a tendency to self-aggregate shift the plasmon wavelength toward the red end of the spectrum. In some embodiments, a shift of greater than 5 nm (i.e., >5 nm) in plasmon wavelength may be used as the cutoff indicative of self-interacting antibodies.
The antibodies were tested for aggregation behavior by affinity capture self-interaction nanoparticle spectroscopy (AC-SINS). Gold nanoparticles were coated with polyclonal antibodies that are specific for human monoclonal antibodies and the monoclonal antibodies are captured by the conjugates. The polyvalency of the monoclonal antibody conjugates amplifies the attractive self-interactions, i.e., aggregation between the adsorbed antibodies. This leads to reduced inter-particle separation distances and is detected by a change in color of the gold colloid solution, which was quantified by a change in the wavelength of maximum absorbance (plasmon wavelength). Plasmon wavelength of 530 nm was used as the reported value for unaggregated gold nanoparticles. Antibodies with a tendency to self-aggregate shift the plasmon wavelength toward the red end of the spectrum. A shift of greater than 5 nm (i.e., >5 nm) in plasmon wavelength was used as the cutoff indicative of self-interacting antibodies.

The target in data set [2] is T1, human pro-myostatin (Homo sapiens, UniProt O14793). Briefly: SEC-MALS binding stoichiometry. To be noted: for Observed Molecular Weight / Predicted Molecular Weight / Difference Observed vs. Predicted: mAb:pro-myostatin complex; for Difference Observed vs. Predicted: < / > = observed below / above predicted. The method, then: A combination of size exclusion chromatography and multi-angle light scattering (SEC-MALS) was used to determine the approximate mass and therefore the oligomeric state of the antibodies and their stoichiometry of binding to human promyostatin. The monoclonal antibody (mAb) or its Fab fragment was mixed with 50 μg of human pro-myostatin at a ratio of 1:1, 2:1 or 3:1 (antibody to antigen) for at least 24 hours at room temperature for immune complexes to form, filtered and injected into an analytical SEC column (Waters HPLC with a Superdex 200 10/300), flowed through a refractive index detector and then a miniDAWN® multi-angle light scattering detector to determine the mass. A full-length human-pro-myostatin with an N-terminal His6 tag (SEQ ID NO: 941) was used to express pro-myostatin in HEK cells. The signal peptide present in the construct is cleaved during biosynthesis. The resulting recombinant human pro myostatin was purified using the His6 tag (SEQ ID NO: 941) and used for the experiment.

In the next data set the target is cyno pro-myostatin (Macaca fascicularis, UniProt Q95J86). Briefly: Biacore 8k SPR binding affinity, cyno pro-myostatin. Details: species or system cynomolgus monkey. From the text: (§1) The Biacore™ 8k SPR system was utilized to evaluate the binding affinity of myostatin antibodies to biotinylated human, murine, and cyno pro-myostatin. Biotin CAPture kit and sensor chips (Cytiva) were utilized in these experiments to immobilize the various antigens, followed by flowing a range of concentrations of each of the test antibodies.
(In general: In SPR one partner is held on a chip, and binding of the other changes the refractive index at the surface.)

Data set [3] is described as follows: dexamethasone-induced muscle atrophy mouse model. The format is in vivo. The following applies: dexamethasone treated mice, antibody 3 mg/kg/day; FIG. 6A, 9A. From the text: To evaluate in vivo efficacy of the novel myostatin-selective inhibitors disclosed herein, the ability of the antibodies to preserve lean muscle mass was examined in a dexamethasone-induced atrophy mouse model. An excess of glucocorticoids directly stimulates myostatin production via interactions with a glucocorticoid response element in the myostatin promoter, thus inducing loss of muscle mass. As shown herein, antibodies of the disclosure prevented glucocorticoid-induced muscle atrophy.
C57BL6 male mice (n=8) at 13-14 weeks of age were given normal drinking water or water containing dexamethasone at a concentration of 2.5 mg/kg (17.5 grams dexamethasone per liter of drinking water) to induce atrophy. […] Body weight was measured daily. Body composition was measured by qNMR to determine lean mass pre-dosing, at day 7, and at day 14. After 14 days of dexamethasone exposure, the animals were terminated, and body weight and gastrocnemius weight were measured. Terminal blood for each animal was also collected.
C57BL6 male mice (n=8) at 13-14 weeks of age were given normal drinking water or water containing dexamethasone at a concentration of 2.5 mg/kg to induce atrophy. Mice were dosed at day 1 and day 7 with vehicle (PBS), IgG control (“hIgG”) or different doses of the test antibodies, as shown in Table 13. Muscle mass at days −1, 6 and 13 was measured using qNMR. At the end of the study (day 14), serum from each animal was collected and changes in body weight, body composition (qNMR), left and right gastrocnemius weight, and left and right quadriceps weight were measured. Statistical analysis was performed by ANOVA (Dunnett's multiple comparison test).
In a third experiment, antibody doses ranging from 0.3 mg/kg to 10 mg/kg were compared for their effectiveness in attenuating dexamethasone-induced atrophy. C57BL6 male mice (n=8) at 13-14 weeks of age were given normal drinking water or water containing dexamethasone at a concentration of 2.5 mg/kg to induce atrophy. Mice were dosed at day 1 and day 7 with vehicle (PBS), human IgG control (“hIgG”) or different doses of the test antibodies, as shown in Table 14 below. qNMR was used to measure muscle mass at days −1, 6 and 13. At day 14 the study ended, serum was collected and changes in body composition (qNMR), left and right gastrocnemius weight, and left and right quadriceps weight were determined. Circulating myostatin was measured in the serum of a terminal bleed taken at day 14. Statistical analysis was performed by ANOVA (Dunnett's multiple comparison test).
In a fourth experiment, antibodies Ab109 and Ab133 were compared to control human IgG and Ab2 in the same protocol as described above.

The target of a further data set is murine pro-myostatin (Mus musculus, UniProt O08689). In words: Biacore 8k SPR binding affinity, murine pro-myostatin.
Excerpt: as §1

The target in data set [4] is T1, human pro-myostatin. Briefly: Biacore 8k SPR binding affinity, human pro-myostatin.
Excerpt: as §1

Where only a bound is given, the exact number is not on record here.

One may read the Kd as the constant that tells how readily two partners part at equilibrium.

B1: Ab105: anti-pro/latent myostatin antibody; CDR sequences in Table 2d (antibody)
heavy: EVQLVESGGGLVQPGGSLRLSCAASGSAFSSYGMSWVRQAPGKGLELVASIGGTGATYYPDSVKGRFTISRDNAKNSLYLQMNSLRAEDTAVYYCARDLLVRFLEWGHYYGMDVWGQGTTVTVSSASTKGPSVFPLAPCSRSTSESTAALGCLVKDYFPEPVTVSWNSGALTSGVHTFPAVLQSSGLYSLSSVVTVPSSSLGTKTYTCNVDHKPSNTKVDKRV[human IgG4 Fc with S228P (EU numbers) left out]
light: DIVMTQSPLSLPVTPGEPASISCRSSQSLLHSSGYNFLHWYLQKPGQSPQLLIYAASSRAPGIPDRFSGSGSGTDFTLKISRVEAEDVGVYYCMHGGQGPTFGGGTKVEIKRTVAAPSVFIFPPSDEQLKSGTASVVCLLNNFYPREAKVQWKVDNALQSGNSQESVTEQDSKDSTYSLSSTLTLSKADYEKHKVYACEVTHQGLSSPVTKSFNRGEC
Consider B1, for which the “aggregation behavior by AC-SINS” value in data set [1] is listed as “did not display aggregation behavior”. Moreover, the “binding stoichiometry mAb:pro-myostatin” value in the data set with human pro-myostatin [2] (full-length mAb) is 2:2 complex and a 1:2 complex. In the data set with human pro-myostatin [2] (input ratio mAb:pro-myostatin 1:1 (peak 1)), the “SEC-MALS Result (kDa)” value worked out at 500 kDa. Also, the “SEC-MALS Result (kDa)” value with human pro-myostatin [2] (input ratio mAb:pro-myostatin 1:1 (peak 2)) is reported as 298.9 kDa. Besides, in the data set with human pro-myostatin [2] (Peak 1), the “Observed Molecular Weight” value is on record as 500.0 kDa, the “Predicted Molecular Weight” value is 485.58 kDa and the “Difference Observed vs. Predicted” value is recorded as more than 14.4 kDa. In the data set with human pro-myostatin [2] (Peak 2), the “Observed Molecular Weight” value is given as 298.9 kDa, the “Predicted Molecular Weight” value is listed as 329.58 kDa and the “Difference Observed vs. Predicted” value is on record as less than 30.7 kDa. Also, in the data set with cyno pro-myostatin, the “Ka” value stood at 5.26e+06 M⁻¹ s⁻¹ and the “Kd (1/s)” value came to 0.000233 s⁻¹. The “maintenance of body weight (percent change from baseline)” value in data set [3] is given as “to a greater extent than Ab2”. Also, in the data set with murine pro-myostatin, the “Ka” value was 5.99e+06 M⁻¹ s⁻¹, binding was characterised by a dissociation constant (Kd) of 0.46 nM and the “Kd (1/s)” value is 0.000276 s⁻¹. In the data set with human pro-myostatin [4], the “Ka” value turned out to be 4.89e+06 M⁻¹ s⁻¹ and the “Kd (1/s)” value was 0.000247 s⁻¹.
